Test results reported in PubChem BioAssay (NCATS).
The inconclusive results got no clear call from the source; some entries with a clear call stand among them for comparison. For some of these results: Potencies of inconclusive entries are doubtful fits and often do not repeat. For some of these results: “Side channel” marks fits to a control or component signal instead of the main read-out. Activity calls are given as the source filed them. Unless noted, calls follow the shape of the dose curve; as a rule, active = well fitted curve in the direction sought with a large enough effect; inconclusive = small, poorly fitted or top-dose-only effect, or another doubt; inactive = no such curve, though single readings can be large; an effect the other way counts as inactive or inconclusive.

Assays:
[1] = NFAT Signaling Pathway (AID 444; active = well fitted curve in either direction with a large enough effect, not every such curve was filed as active; inconclusive = small, poorly fitted or top-dose-only effect, or another doubt;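 also: carbachol stimulus at about its EC50 of 1 µM final; % is scaled to controls: 0 for no effect and ±100 for the full control effect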); details: Jurkat NFAT-bla M1, carbachol, beta-lactamase ratio, 5 h; at 17.2 µM (top of the series) unless noted
Procedure, shortened: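 Jurkat cells carrying an NFAT-driven β-lactamase reporter and co-transfected muscarinic M1 receptor were treated with compound plus carbachol (1 uM final, an EC50 level) for 5 h at 37 °C. CCF4 loading followed for 1 h at RT; 460/530 nm ratio gave %activity.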

[2] = target: Cytochrome P450 3A4 (Homo sapiens) (UniProt P08684); assay: qHTS Assay for Inhibitors and Substrates of Cytochrome P450 3A4 (AID 884); also: potency is read from the fitted curve at half-maximal effect; nearly all actives have a fitted effect of over 50% in size
Sequence of UniProt P08684 (P08684 whole entry, looked up): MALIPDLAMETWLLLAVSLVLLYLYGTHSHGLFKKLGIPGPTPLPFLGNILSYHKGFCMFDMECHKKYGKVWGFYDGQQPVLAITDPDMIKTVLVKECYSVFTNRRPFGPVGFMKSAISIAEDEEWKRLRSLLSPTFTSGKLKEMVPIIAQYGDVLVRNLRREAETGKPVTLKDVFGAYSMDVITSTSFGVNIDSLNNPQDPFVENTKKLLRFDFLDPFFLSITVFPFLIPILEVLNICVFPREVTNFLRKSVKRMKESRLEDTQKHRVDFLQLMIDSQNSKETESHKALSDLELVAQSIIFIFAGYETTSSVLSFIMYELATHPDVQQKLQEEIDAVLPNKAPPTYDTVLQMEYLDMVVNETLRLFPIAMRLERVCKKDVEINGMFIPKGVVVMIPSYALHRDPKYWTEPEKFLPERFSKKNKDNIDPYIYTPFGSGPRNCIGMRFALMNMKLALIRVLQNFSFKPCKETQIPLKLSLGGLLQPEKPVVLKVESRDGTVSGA
Procedure, shortened: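 Luminescent readout of luciferin produced by CYP3A4 (20 nM) dealkylation of Luciferin-PPXE, 25 uM (its KM). NADPH-driven reaction ran 60 min at RT after 10 min compound preincubation; data scaled to 57 uM ketoconazole as 100% inhibition.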

[3] = target: Cytochrome P450 2D6 (Homo sapiens) (UniProt P10635); assay: qHTS Assay for Inhibitors and Substrates of Cytochrome P450 2D6 (AID 891); details: recombinant CYP2D6, luciferin-ME EGE luminescence; activity change, negative = inhibition: at 57.1 µM (top of the series);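 also: luciferin methyl ether substrate demethylated by CYP2D6 with NADPH regeneration; potency is read from the fitted curve at half-maximal effect; nearly all actives have a fitted effect of over 60% in size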
Sequence of UniProt P10635 (P10635 whole entry, looked up): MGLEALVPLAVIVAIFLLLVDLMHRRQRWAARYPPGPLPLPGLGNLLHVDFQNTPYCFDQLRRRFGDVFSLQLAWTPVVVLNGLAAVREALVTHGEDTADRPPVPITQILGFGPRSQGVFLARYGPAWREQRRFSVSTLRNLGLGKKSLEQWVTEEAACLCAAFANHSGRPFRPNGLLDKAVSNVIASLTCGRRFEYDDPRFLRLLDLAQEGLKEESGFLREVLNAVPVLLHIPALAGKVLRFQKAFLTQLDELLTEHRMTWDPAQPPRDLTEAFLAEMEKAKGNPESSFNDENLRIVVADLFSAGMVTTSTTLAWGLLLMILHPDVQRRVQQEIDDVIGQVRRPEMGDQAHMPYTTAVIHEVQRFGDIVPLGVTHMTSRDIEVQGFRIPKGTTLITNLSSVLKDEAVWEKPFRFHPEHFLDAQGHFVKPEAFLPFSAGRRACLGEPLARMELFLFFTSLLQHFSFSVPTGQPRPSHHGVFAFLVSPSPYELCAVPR
Procedure, shortened: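 Luminescent read-out of luciferin formed by 5 nM human CYP2D6 demethylating 30 uM Luciferin-ME EGE (Km level) over 60 min at room temperature after NADPH regeneration addition. Data normalized to full inhibition by 1.43 uM quinidine.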

[4] = target: Cytochrome P450 2C9 (Homo sapiens) (UniProt P11712); assay: qHTS Assay for Inhibitors and Substrates of Cytochrome P450 2C9 (AID 883); details: recombinant CYP2C9, luciferin-H luminescence, 60 min; activity change, negative = inhibition: at 57.1 µM (top of the series); also: potency is read from the fitted curve at half-maximal effect; nearly all actives have a fitted effect of over 60% in size
Sequence of UniProt P11712 (P11712 whole entry, looked up): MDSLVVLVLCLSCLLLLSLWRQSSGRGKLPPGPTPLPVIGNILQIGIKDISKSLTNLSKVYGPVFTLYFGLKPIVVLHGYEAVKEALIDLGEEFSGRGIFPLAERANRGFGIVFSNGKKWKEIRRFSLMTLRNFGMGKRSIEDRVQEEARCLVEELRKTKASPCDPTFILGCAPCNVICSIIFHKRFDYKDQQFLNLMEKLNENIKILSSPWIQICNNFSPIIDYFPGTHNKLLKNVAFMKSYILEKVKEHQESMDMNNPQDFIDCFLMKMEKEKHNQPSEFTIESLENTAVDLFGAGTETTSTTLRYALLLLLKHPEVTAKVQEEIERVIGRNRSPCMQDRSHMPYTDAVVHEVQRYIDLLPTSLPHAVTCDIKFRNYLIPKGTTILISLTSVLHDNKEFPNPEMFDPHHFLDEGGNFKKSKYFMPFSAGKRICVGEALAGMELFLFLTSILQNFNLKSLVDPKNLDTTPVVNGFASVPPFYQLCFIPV
Procedure, shortened: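 CYP2C9 deoxyluciferin hydroxylation, 37C, 60 min with NADPH regeneration; 10nM enzyme, 100uM Luciferin-H (KM). Glo detection reagent stopped reaction; luminescence normalized to sulphaphenazole (57uM) full inhibition.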

[5] = target: Cytochrome P450 3A4 (Homo sapiens) (UniProt P08684); assay: qHTS Assay for Activators of Cytochrome P450 3A4 (AID 885); also: nearly all actives have a fitted effect of over 65% in size; also: potency is read from the fitted curve at half-maximal effect
Procedure, shortened: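 Activators are scored by enhanced luminescence from CYP3A4 conversion of luciferin-PPXE (25uM, equal to KM) to luciferin, after 60 min at RT with an NADPH-regenerating system.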

[6] = target: Cytochrome P450 2C19 (Homo sapiens) (UniProt P33261); assay: qHTS Assay for Inhibitors and Substrates of Cytochrome P450 2C19 (AID 899); also: potency is read from the fitted curve at half-maximal effect; nearly all actives have a fitted effect of over 60% in size
Sequence of UniProt P33261 (P33261 whole entry, looked up): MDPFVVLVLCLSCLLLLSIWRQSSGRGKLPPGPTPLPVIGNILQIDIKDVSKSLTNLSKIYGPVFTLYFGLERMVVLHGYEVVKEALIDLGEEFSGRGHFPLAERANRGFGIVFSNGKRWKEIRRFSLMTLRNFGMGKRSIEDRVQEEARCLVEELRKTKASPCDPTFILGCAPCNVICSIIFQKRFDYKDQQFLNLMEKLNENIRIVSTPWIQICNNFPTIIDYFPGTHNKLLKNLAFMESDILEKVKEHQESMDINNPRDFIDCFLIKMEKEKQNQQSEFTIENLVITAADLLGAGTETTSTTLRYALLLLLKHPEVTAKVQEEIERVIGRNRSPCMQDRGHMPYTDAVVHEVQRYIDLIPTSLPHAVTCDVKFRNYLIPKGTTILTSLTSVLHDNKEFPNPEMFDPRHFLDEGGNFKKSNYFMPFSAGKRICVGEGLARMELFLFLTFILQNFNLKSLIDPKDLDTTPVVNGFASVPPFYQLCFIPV
Procedure, shortened: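 In 50mM KPO4, the reaction held 5nM enzyme and KM-level (10uM) Luciferin-H EGE; it ran 60 min at 37C after NADPH regeneration and a 10 min compound preincubation. Luminescence values were scaled to 57uM ketoconazole as complete inhibition.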

[7] = qHTS Assay for Identification of Small Molecule Agonists for Hypoxia Response Element Signaling Pathway (AID 914; active = well fitted activation curve with a large enough effect in the signal ratio, with a control signal flat, not every such curve was filed as active; inconclusive = small, poorly fitted or top-dose-only effect, or effect the other way, or a change in a side signal; the % refers to the signal ratio; also: potency is read from the fitted curve at half-maximal effect; as to activation: top concentration of the series differs between compounds; % of control where 0% means no effect); details: ME-180 (cervical carcinoma) HRE-bla reporter, beta-lactamase ratio, CoCl2, 17 h; activation: active compounds read high
Procedure, shortened: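 A beta-lactamase reporter under hypoxia response element control in ME-180 cells served as the system. Compound titrations plus EC50 CoCl2 ran 17 h at 37 degrees Celsius; AC50 values were fitted from %Activity.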

[8] = qHTS Assay for Identification of Small Molecule Antagonists for NFkB Signaling Pathway (AID 895; active = well fitted inhibition curve with a large enough effect in the signal ratio, with a control signal flat, not every such curve was filed as active; inconclusive = small, poorly fitted or top-dose-only effect, or effect the other way, or a change in a side signal; the % refers to the signal ratio; also: potency is read from the fitted curve at half-maximal effect); details: NFkB beta-lactamase reporter cells, FRET ratio 460/530, stimulated with 10 pM TNF alpha; activity change, negative = inhibition: at 38.3 µM (top of the series)
Procedure, shortened: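 NFkB-bla ME-180 cervical carcinoma cells with beta-lactamase reporter under NFkB response element; compounds added, then TNF alpha at 10 pM final (EC50), 5 h at 37 C. LiveBLAzer substrate 2 h, room temperature; emission 460/530 nm at 405 nm excitation.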

[9] = qHTS Assay for Identification of Small Molecule Agonists for Thrombopoietin (TPO) Signaling Pathway (AID 917); details: TPO signaling pathway reporter cells, agonist qHTS, stimulated with TPO at its EC50; activity, positive = activation: at 38.5 µM (top of the series); also: potency is read from the fitted curve at half-maximal effect
Procedure, shortened: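 First, Ba/F3 cells with human TPO receptor were held overnight without IL-3. Next, compounds and TPO (26 pM final) were added. After 24 hrs at 37 C, luciferase detection reagent was added and luminescence measured following 10 min at room temperature.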

[10] = target: Muscarinic acetylcholine receptor M1 (Rattus norvegicus) (UniProt P08482); assay: qHTS Assay for Antagonists of Acetylcholine Muscarinic M1 Receptor: Kinetic Measurement of Intracellular Calcium Response (AID 943); also: potency is read from the fitted curve at half-maximal effect; nearly all actives have a fitted effect of over 75% in size
Sequence of UniProt P08482 (P08482 whole entry, looked up): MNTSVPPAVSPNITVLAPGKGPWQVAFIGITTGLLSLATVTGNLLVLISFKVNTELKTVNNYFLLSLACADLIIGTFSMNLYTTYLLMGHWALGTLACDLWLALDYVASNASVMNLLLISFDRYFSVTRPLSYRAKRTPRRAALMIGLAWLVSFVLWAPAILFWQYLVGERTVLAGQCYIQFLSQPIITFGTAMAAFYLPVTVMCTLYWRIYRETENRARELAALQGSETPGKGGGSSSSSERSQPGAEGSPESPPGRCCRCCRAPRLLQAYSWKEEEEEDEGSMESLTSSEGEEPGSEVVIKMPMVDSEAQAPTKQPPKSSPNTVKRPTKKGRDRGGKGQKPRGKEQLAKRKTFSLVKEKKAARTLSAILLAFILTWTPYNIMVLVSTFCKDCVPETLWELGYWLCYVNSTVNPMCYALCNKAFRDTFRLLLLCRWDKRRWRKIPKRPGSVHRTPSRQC
Procedure, shortened: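 Quantitative HTS in CHO-M1 (rat receptor) cells: 10 min compound exposure ahead of 100 nM carbachol, Fluo-4 fluorescence followed 4 min, value expressed as peak-to-basal ratio.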

[11] = qHTS Assay for Identification of Small Molecule Agonists for NFkB Signaling Pathway (AID 928; calls by dose curve); details: NFkB beta-lactamase reporter cells, blue/green ratio
Procedure, shortened: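 Activators were sought with TNF alpha co-added at 10 pM final (its EC50) to beta-lactamase reporter cells. Cells were plated in OPTI MEM with 0.5% FBS and exposed for 5 hrs at 37 C. The FRET substrate ratio was read at 460 and 530 nm.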
Tags tell the direction and shape of the fitted curve or compound fluorescence and quenching.

Compound: CN1CCN(CC(=O)N2c3ccccc3Sc3cc4ccccc4cc32)CC1
- activity change, negative = inhibition [1]: inconclusive: -78.7% [inhibitor] [at 7.69 µM]
- Potency [2]: inconclusive: 3.98 µM [inhibitor, partial curve]
- Potency [3]: inconclusive: 3.16 µM [inhibitor, partial curve]

Compound: C/C(=N/Nc1ccc2ccccc2n1)c1ccccc1O
- activity change, negative = inhibition [1]: inactive: 2.32% [at 7.69 µM]
- Potency [4]: inconclusive: 2.51 µM [inhibitor, partial curve]
- activity change, positive = activation [5]: inactive: -66.5% [at 11.4 µM]
- Potency [6]: inconclusive: 3.16 µM [inhibitor, partial curve, poor fit]

Compound: Cc1cc(OCc2nc(N)nc(N)c2-c2ccc(Cl)c(Cl)c2)ccc1[N+](=O)[O-]
- activity change, negative = inhibition [1]: inconclusive: -32.6% [inhibitor] [at 7.69 µM]
- Potency [2]: inconclusive: 3.98 µM [inhibitor, partial curve]
- Potency [3]: inconclusive: 3.16 µM [inhibitor, partial curve]
- Potency [7]: inconclusive: 0.1 µM [activator, partial curve]

Compound: CN1CCc2cc(Cl)c(O)cc2[C@H](c2ccccc2)C1
- activity change, negative = inhibition [1]: inactive: -3.81% [at 38 µM]
- Potency [5]: inconclusive: 10 µM [activator, partial curve]
- Potency [8]: inconclusive: 2.82 µM [inhibitor, full curve, poor fit]
- activation [7]: inactive: -21.3%
- Potency [9]: inconclusive: 5.01 µM [inhibitor, partial curve]
- Potency [10]: inconclusive: 3.98 µM [inhibitor, partial curve, poor fit]

Compound: O=C(c1[nH]o[n+](=O)c1C(=O)c1csc2ccccc12)c1csc2ccccc12
- activity change, negative = inhibition [1]: inconclusive: -85.6% [inhibitor] [at 7.69 µM]
- Potency [2]: inconclusive: 3.16 µM [inhibitor, single point]

Compound: Cn1cccc1C(=O)N1CCC2(CCN(Cc3nccs3)CC2)CC1
- activity change, negative = inhibition [1]: inconclusive: -38% [inhibitor] [at 7.69 µM]
- Potency [5]: inconclusive: 20 µM [activator, single point]

Compound: COC(=O)N1CCC2(CCCN(C(=O)Nc3cccc(C#N)c3)C2)CC1
- activity change, negative = inhibition [1]: inconclusive: -43.5% [inhibitor] [at 7.69 µM]
- Potency [2]: inconclusive: 6.31 µM [inhibitor, partial curve]
- activation [7]: inconclusive: -34.4%

Compound: Cc1ccc(S(=O)(=O)O[C@H]2C[C@@H](C(C)(C)C)CC[C@@H]2c2ccccc2)cc1
- activity change, negative = inhibition [1]: inconclusive: -33.4% [inhibitor] [at 7.69 µM]
- Potency [2]: inconclusive: 2 µM [inhibitor, partial curve]
- Potency [6]: active: 3.16 µM

Compound: CN(CCc1ccccn1)c1ccc2c(c1)Cc1ccccc1-2
- activity change, negative = inhibition [1]: inactive: -13.8% [at 7.69 µM]
- Potency [4]: inconclusive: 7.94 µM [inhibitor, single point]
- Potency [7]: inconclusive: 3.16 µM [inhibitor, single point]

Compound: Cc1cccc(C)c1OC[C@@H](N)C(C)C
- Potency [9]: inconclusive: 5.01 µM [activator, single point]

Compound: Oc1ccc([C@@H]2CNCc3sccc32)cc1O
- Potency [9]: inconclusive: 12.6 µM [inhibitor, partial curve]

Compound: CCCCC[C@H](O)CCCC(=O)O
- Potency [11]: inconclusive: 5.01 µM [inhibitor, partial curve]

Compound: O=C(O)c1nn(-c2ccc(Cl)cc2)c2c1C(=O)c1ccccc1C2=O
- activity change, negative = inhibition [1]: inactive: -17.6% [at 7.69 µM]
- Potency [7]: inconclusive: 2.51 µM [inhibitor, partial curve]

Compound: C=CCn1c(SCC#N)nc2c(c1=O)C(C)(C)Cc1ccccc1-2
- activity change, negative = inhibition [1]: inconclusive: -67.2% [inhibitor]
- Potency [7]: inconclusive: 10 µM [inhibitor, partial curve, poor fit]

Compound: Cc1ccc(N2C(=O)CC(N(O)C3CC(=O)N(c4ccc(C)cc4)C3=O)C2=O)cc1 (centres undefined)
- activity change, negative = inhibition [1]: inconclusive: -106% [inhibitor]
- activation [7]: inconclusive: -29.8%

Compound: O=c1c(CCc2ccccc2)nc2cnc(Nc3ccccc3)nc2n1Cc1cccs1
- activity change, negative = inhibition [1]: inconclusive: -66.7% [inhibitor] [at 7.69 µM]
- Potency [7]: inconclusive: 2.51 µM [fluorescent, side channel, partial curve]

Compound: CN(C)c1ccc(C2C3C(=O)N(c4ccc(C(=O)O)cc4)C(=O)C3ON2c2ccccc2)cc1 (centres undefined)
- activity change, negative = inhibition [1]: inactive: 17.3%
- Potency [7]: inconclusive: 0.126 µM [inhibitor, full curve]

Compound: CCc1c(C)c2cc(Cl)c(O)c(CN3CCCCC3)c2oc1=O
- activity change, negative = inhibition [1]: inconclusive: 31.3% [activator]
- Potency [7]: inconclusive: 6.31 µM [activator, partial curve]

Compound: N#CC1=C(N)N(c2ccccc2)C(c2ccccc2)C1(C#N)C#N (centres undefined)
- activity change, negative = inhibition [1]: inconclusive: -36.5% [inhibitor]
- activation [7]: inconclusive: 19.7%

Compound: Cc1nc(N2CCN(Cc3ccccc3)CC2)c(C#N)c2c1COC(C)(C)C2
- activity change, negative = inhibition [1]: inconclusive: -33% [inhibitor]
- Potency [7]: inconclusive: 3.98 µM [inhibitor, partial curve, poor fit]
